# Experimental data as given in paper PMC4336329 (PLoS ONE, 2015).
# About 14,000 (4.5%) of roughly 310,000 compounds showed an effect of 50% or more. Effects have a minus sign here. Some of the results follow.
# Target: human ether-à-go-go-related gene (hERG) potassium channel (human, UniProt Q12809)
# Experiment: primary screen, population patch clamp on CHO cells stably expressing hERG
# 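Note: peak tail current of the secondary pulse compared with the same well before compound.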
# Chain of human ether-à-go-go-related gene (hERG) potassium channel (Q12809 whole entry, looked up): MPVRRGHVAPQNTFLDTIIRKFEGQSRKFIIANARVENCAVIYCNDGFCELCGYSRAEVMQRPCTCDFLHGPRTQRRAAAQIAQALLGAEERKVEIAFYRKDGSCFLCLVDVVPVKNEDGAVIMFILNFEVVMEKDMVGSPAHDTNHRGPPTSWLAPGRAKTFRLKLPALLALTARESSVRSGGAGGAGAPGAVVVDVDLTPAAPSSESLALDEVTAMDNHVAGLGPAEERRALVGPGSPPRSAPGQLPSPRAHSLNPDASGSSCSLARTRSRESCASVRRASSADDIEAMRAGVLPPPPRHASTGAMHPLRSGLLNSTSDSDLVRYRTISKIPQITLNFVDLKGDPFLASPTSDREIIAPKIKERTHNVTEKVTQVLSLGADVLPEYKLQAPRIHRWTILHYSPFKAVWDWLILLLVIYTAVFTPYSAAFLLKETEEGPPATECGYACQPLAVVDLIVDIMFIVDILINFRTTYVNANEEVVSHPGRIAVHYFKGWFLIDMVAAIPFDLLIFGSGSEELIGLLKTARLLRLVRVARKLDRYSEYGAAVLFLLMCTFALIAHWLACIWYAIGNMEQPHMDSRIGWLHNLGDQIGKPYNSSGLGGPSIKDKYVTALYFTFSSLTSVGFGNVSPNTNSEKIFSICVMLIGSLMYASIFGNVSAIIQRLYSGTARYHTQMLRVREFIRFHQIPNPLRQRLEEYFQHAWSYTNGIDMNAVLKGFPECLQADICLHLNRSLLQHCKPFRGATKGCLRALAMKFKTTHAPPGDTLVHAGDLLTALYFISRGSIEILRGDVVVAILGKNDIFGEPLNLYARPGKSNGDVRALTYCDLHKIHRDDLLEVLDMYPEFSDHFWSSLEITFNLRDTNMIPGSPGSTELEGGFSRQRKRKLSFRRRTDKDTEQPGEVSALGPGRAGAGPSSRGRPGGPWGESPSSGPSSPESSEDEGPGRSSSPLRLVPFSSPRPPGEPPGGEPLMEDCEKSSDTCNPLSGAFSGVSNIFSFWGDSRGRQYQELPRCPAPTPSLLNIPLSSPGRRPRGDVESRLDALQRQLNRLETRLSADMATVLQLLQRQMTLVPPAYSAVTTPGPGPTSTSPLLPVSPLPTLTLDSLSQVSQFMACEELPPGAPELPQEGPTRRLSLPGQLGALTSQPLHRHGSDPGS
row,SMILES,"hERG current change (%, negative = inhibition) at 10uM [%]"
1,CCOC(=O)N1CCN(C(=O)c2cnc3n(c2=O)CCS3)CC1,7.34
2,CC(=O)c1ccc(OCc2cc(C(=O)N3CCC(Oc4ccccc4C)CC3)no2)cc1,6.69
3,CCOc1ccc2ccccc2c1C(=O)N[C@@H]1C(=O)N2[C@@H]1SC(C)(C)[C@@H]2C(=O)[O-].O.[Na+],23.7
4,O=c1cnn(Cc2c(Cl)cccc2Cl)c2ccccc12,-5.93
5,CCc1ccc(OCC(=O)Nc2cc(S(=O)(=O)CC)ccc2O)cc1,-0.287
6,Cc1cccc2c(C(=O)O)c3cccc(C)c3nc12,1.39
7,CCC(=NCCCn1ccnc1)c1c(O)n(Cc2ccccc2)c(=O)[nH]c1=O,-68
8,Cc1cc(C)c(S(=O)(=O)c2c(C)cccc2C)c(OCC(C)C)n1,2.76
9,Cn1c2c(c(=O)n(C)c1=O)C(NC(=O)c1ccco1)(C(F)(F)F)C(=O)N2 (stereo not shown),16.3
10,CC(C)NC(=O)CN(Cc1ccccc1)S(=O)(=O)c1ccccc1,-2.13
11,O=C(COC(=O)c1ccccc1-n1cnnn1)c1ccc(Br)cc1,4.53
12,CCCCC1NC(C(=O)O)CS1 (stereo not shown),12.9
13,COc1ccc([C@H]2CC(=O)C=C(c3ccc4cc[nH]c4c3)C2)cc1,-14.2
14,CN(C)C(=O)Oc1ccc2nnc3ccnn3c2c1,1.04
15,Cc1ccc(C)c(NC(=O)CSc2nnc(-c3ccncc3)o2)c1,7.04
16,COc1cccc(/C=C/C(=O)NCc2cn3cc(Cl)ccc3n2)c1OC,34.4
17,CC1Sc2ccc(C(=O)Nc3ncccc3O)cc2NC1=O (stereo not shown),-6.83
18,Cc1ccc(C(C(=O)NC2CCCCC2)N(C(=O)Cc2c[nH]c3ccccc23)c2ccccc2C)o1 (stereo not shown),20.2
19,O=C(Nc1ccc(C(=O)NCc2ccccc2Cl)cc1)C1=CSCCO1,9.63
20,O=C(NC1CCCCCC1)C1CCN(S(=O)(=O)c2ccccc2)CC1,6.07
21,CC(C)CNC(=O)C1Nc2ccc(OC(F)(F)F)cc2C2C=CCC12 (stereo not shown),2.62
22,Cn1cc(S(=O)(=O)N2CCOCC2)cc1C(=O)Nc1ccc(Cl)cc1,-51
23,Cc1ccccc1-n1c(SC/C(O)=C(\C#N)c2nc3ccccc3[nH]2)nnc1-c1ccncc1,-19.6

row,SMILES,"hERG current change (%, negative = inhibition) at 10uM [%]"
1,N#CC1=C(N)NC(SCc2ccc(Cl)cc2)=C(C#N)C12CCCCC2,-28.6
2,O=C(C1=C(O)C(=O)N(Cc2ccccc2)C1c1ccncc1)c1ccco1 (stereo not shown),13.5
3,COc1ccc(CNC(=O)c2c(-c3cc(Cl)c(OC)c(Cl)c3)noc2C)cc1,-3.56
4,CC(C)OCCCNC(=O)CN1C(=O)/C(=C/c2ccccc2)Sc2ccccc21,-29.2
5,CCN(CC)CCCNC(=O)CNC(=O)c1nn(-c2ccc(OC)c(OC)c2)c(=O)c2ccccc12,21.6
6,Cc1cc(=O)n2nc(N3CCC(C(=O)NCc4cccnc4)CC3)sc2n1,7.16
7,O=C(OCCCC(=O)N1CCOCC1)c1ccccc1,6.46
8,CCOC(=O)C(=O)N1CCN(c2ccccc2OC)CC1,6.36
9,COCCNC(=O)c1onc(CS(=O)(=O)c2cc(C)cc(C)c2)c1C(=O)NCCOC,1.53
10,CCOC(=O)C(N)CSC1CC(=O)N(c2ccc(OC)cc2)C1=O.Cl (stereo not shown),15.8
11,NCCCCCNC(=O)/C=N\O,20.1
12,CNc1ccc(OC)cc1-n1cnc(-c2ccc([N+](=O)[O-])cc2)c1,-11.1
13,Cc1ccccc1OCC(=O)OCC(=O)NCc1ccco1,0.65
14,COc1ccc(NC(=O)C2CCCN2c2nn3c(=O)cc(C)nc3s2)cc1 (stereo not shown),-6.54
15,COc1cccc(CN(C(=O)c2ccccc2Cl)C2CCS(=O)(=O)C2)c1 (stereo not shown),8.05
16,CC(C)c1nc(SCC(=O)Nc2ccc3c(c2)OCCO3)n[nH]1,-1.52
17,CCCCOC(=O)c1ccc(Nc2ncnc3nc[nH]c23)cc1,14.4
18,Cc1ccc(S(=O)(=O)N[C@@H](CCCCN)C(=O)CCl)cc1.Cl,-1.37
19,CC1CC(C)(C)CC2(C1)NC(=O)N(CC(=O)NCCc1c[nH]c3ccccc13)C2=O (stereo not shown),9.47
20,O=C(Nc1ccccc1)N(O)c1ccc(Cl)cc1,-6.08
21,CCC(C)NC(=O)C1CCN(C(=O)c2ccccc2)CC1 (stereo not shown),4.48
22,NS(=O)(=O)c1ccc(Nc2nc(-c3cccnc3)cs2)cc1,-2.97
23,COc1ccc(/C=C2\SC(=O)N=C2N)cc1OC,21.7

row,SMILES,"hERG current change (%, negative = inhibition) at 10uM [%]"
1,CC1(C)CC(=O)c2c(nc3ccccc3c2N)C1,-28.8
2,COc1ccc2ncn(-c3ccccc3)c2c1,-7.39
3,CCN(CC)C1CCN(C(=O)c2ccc(OC3CCN(Cc4ccccn4)CC3)cc2)C1 (stereo not shown),15.6
4,Cc1ccccc1NC(=O)C1CC(=O)N(Cc2ccccc2)C1 (stereo not shown),-7.03
5,Cc1cc2oc(C(=O)NC3CCS(=O)(=O)C3)cc(=O)c2cc1C (stereo not shown),15.3
6,COc1cccc(/C=N/NC(=O)c2ccc(COc3ccc(Cl)cc3Cl)o2)c1,5.86
7,CCCC[n+]1ccn(C2=C([O-])c3ccccc3C(=O)/C2=N\S(=O)(=O)c2ccc(Br)cc2)c1,-20.7
8,CCCCCCC(=O)NN1CCN(C)CC1,14.1
9,Cc1ccc2c(c1)N(C(=O)CCC(=O)NCc1cccc(F)c1)CCO2,-5.21
10,COCCCNC(=O)c1ccc([N+](=O)[O-])cc1,3.66
11,CC(C)(C)S(=O)(=O)c1ccc2nc3c(n2c1)CCCC3,4.04
12,COc1cc(OC)cc(C(=O)NC(C(=O)N2CCc3ccccc3C2)C(C)C)c1 (stereo not shown),15
13,CC(C[N+](C)(C)C)OC(=O)C1(c2ccccc2)CCCC1 (stereo not shown),24.7
14,CCN(CC)C(=O)C1CCCN(C(=O)c2oc3ccc(C)cc3c2C)C1 (stereo not shown),23.4
15,COc1cc(OC)c(OC)cc1CN1CCc2ccccc2C1,-2.84
16,CNC(=O)c1cc2c(ccc3ccccc32)oc1=N,-7.23
17,Cn1c(=O)cc(SCC(=O)NCCCN2CCOCC2)c2ccc(Cl)cc21,-3.15
18,COc1cccc(C(=O)NC2CCN(C(=O)N3c4ccccc4Sc4ccccc43)CC2)c1,-4.78
19,COc1cc(CNCC(C)C)c(Br)cc1OCC(=O)NCc1ccccc1,-10.7
20,N#Cc1c(N)c2ccccn2c1C(=O)c1ccc(Br)cc1,16
21,C#CCOC(=O)C1C2C=CC(C2)C1C(=O)O (stereo not shown),-0.238
22,CCc1cc(=O)oc2cc(OCC(=O)NCC3CCC(C(=O)O)CC3)ccc12 (stereo not shown),-5.13
23,CCOc1ccc(N(CC(=O)NCCSCc2ccc(Cl)cc2)S(C)(=O)=O)cc1,4.71

row,SMILES,"hERG current change (%, negative = inhibition) at 10uM [%]"
1,CC(C)C[C@@H](CO)N1CCNCCC1=O,23
2,Cc1oc2c(Cl)c(Cl)c(O)c(CN(C)C)c2c1C(=O)c1ccc(Cl)cc1,-1.39
3,O=C(CSc1nnc(-c2cccs2)n1C1CC1)NCC1CCCO1 (stereo not shown),-0.536
4,CS(=O)(=O)c1ccc(Cl)c(NC(=O)c2cccc(N3C(=O)CCC3=O)c2)c1,0.801
5,O=C(Nc1nnc(CCN2CCCCC2)s1)c1ccc(Br)cc1,-51.4
6,COc1ccc(NC(=O)C(C)N2C(=O)c3ccccc3C2=O)cc1S(=O)(=O)N1CCOCC1 (stereo not shown),2.26
7,c1ccc(SCCOCCn2cncn2)cc1,9.68
8,COc1cccc(CN(C)Cc2nc(Cc3ccccc3Cl)no2)c1,17.7
9,Cn1c(SCc2c(Cl)cccc2Cl)nnc1-c1ccc2nonc2c1,-55.1
10,O=C(CCS(=O)(=O)c1ccccc1)OCC(=O)N1CCN(S(=O)(=O)c2ccc(Cl)cc2)CC1,4.76
11,CC(=O)Nc1ccc2[nH]c(C)cc(=O)c2c1,5.14
12,Cc1ccnc(N/C=C(\C#N)c2nc(-c3cccc(Br)c3)cs2)c1,-2.02
13,O=c1[nH]c(NCCO)nc2c1C1(CCCC1)Cc1ccccc1-2,5.92
14,CC(=O)Nc1cccc(Oc2ccc([N+](=O)[O-])cc2Cl)c1,-2.84
15,Clc1ccc(-n2nnnc2-c2ccno2)cc1,2.67
16,CCCCOc1ccc(Cl)cc1CSc1n[nH]c(C)n1,-2.72
17,Cc1ccc(S(=O)(=O)N(CC(=O)NCCSC2CCCCC2)c2ccccc2F)cc1,5.8
18,CC1(C(=O)N/N=C/c2ccccc2)CC1(Cl)Cl (stereo not shown),-3.14
19,COc1ccc(NC(=S)N2CCN(S(=O)(=O)c3ccccc3)CC2)cc1,-9.13
20,Cc1ccccc1NC(=O)NC1(C(=O)NCc2ccco2)CCCCC1,0.00838
21,C=CCn1c(-c2ccc(OC)cc2)nc2nc3ccccc3nc21,8.14
22,O=C1NC(=O)N(c2ccc3c(c2)OCO3)C(=O)/C1=C\c1ccsc1,14.9
